Source: the supplement of paper PMC7826260
The list shows a part of the results. Cleavage of a single-stranded DNA pool by Rep nickase domains was read by sequencing for 1 h at 37 °C with 3 µM enzyme; only the middle of the 90-letter strands is printed. Numbers give uncut DNA relative to the enzyme-free pool, as log2; more negative means more cut, near 0 not cut, and no call is made. The scaling is to total reads; uncut strands gain when others are lost, and binding without cutting may add a little.

Assays:
Assay in all cases: uncleaved DNA left, log2 of reads against the no-enzyme library (log2 ratio); higher = less cleavage (more negative = more Rep cleavage of the k-mer); sequences stand for … in CTCGTCCG…ACCGGAGA
[1] = system: T1, Rep nickase domain of Muscovy duck circovirus
T1 sequence (protein, residues 1-111, tag omitted): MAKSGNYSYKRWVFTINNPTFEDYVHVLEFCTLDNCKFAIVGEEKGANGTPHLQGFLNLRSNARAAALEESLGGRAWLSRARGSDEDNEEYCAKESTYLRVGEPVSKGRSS
Method: (§1)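 A pool of 90-nt single-stranded DNAs with seven random bases just before the constant AC of the nick site (name = the seven bases) was cut by 3 µM recombinant His6-SUMO-tagged Rep nickase domain (300 nM DNA, 50 mM HEPES pH 8.0, 50 mM NaCl, 1 mM MnCl2, 1 h, 37 °C, three replicates). Uncut DNA was amplified and sequenced.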

[2] = system: T2, Rep nickase domain of banana bunchy top virus
T2 sequence (protein, residues 1-94, tag omitted): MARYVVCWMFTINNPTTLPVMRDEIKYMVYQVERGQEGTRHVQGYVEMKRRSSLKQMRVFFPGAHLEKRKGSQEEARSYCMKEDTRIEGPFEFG
Method: as §1

[3] = system: T3, Rep nickase domain of cabbage leaf curl virus
T3 sequence (protein, residues 1-116, tag omitted): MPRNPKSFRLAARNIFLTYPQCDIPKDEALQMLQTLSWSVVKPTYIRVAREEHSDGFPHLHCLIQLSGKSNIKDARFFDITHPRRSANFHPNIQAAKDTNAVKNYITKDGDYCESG
Method: as §1

[4] = system: T4, Rep nickase domain of chickpea chlorotic dwarf virus
T4 sequence (protein, residues 1-124, tag omitted): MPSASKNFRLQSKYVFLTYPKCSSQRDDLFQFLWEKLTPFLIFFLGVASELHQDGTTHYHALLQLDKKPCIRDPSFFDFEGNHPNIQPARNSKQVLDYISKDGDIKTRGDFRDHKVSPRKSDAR
Method: as §1

[5] = system: T5, Rep nickase domain of faba bean necrotic yellows virus
T5 sequence (protein, residues 1-98, tag omitted): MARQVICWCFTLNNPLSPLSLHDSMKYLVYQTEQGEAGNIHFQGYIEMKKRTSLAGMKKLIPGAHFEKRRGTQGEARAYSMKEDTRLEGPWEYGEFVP
Method: as §1

[6] = system: T6, Rep nickase domain of maize striate mosaic virus
T6 sequence (protein, residues 1-117, tag omitted): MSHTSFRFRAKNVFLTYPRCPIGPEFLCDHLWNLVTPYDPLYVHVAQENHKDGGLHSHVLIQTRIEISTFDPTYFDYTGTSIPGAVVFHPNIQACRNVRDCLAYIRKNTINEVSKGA
Method: as §1

[7] = system: T7, Rep nickase domain of porcine circovirus 2
T7 sequence (protein, residues 2-116, tag omitted): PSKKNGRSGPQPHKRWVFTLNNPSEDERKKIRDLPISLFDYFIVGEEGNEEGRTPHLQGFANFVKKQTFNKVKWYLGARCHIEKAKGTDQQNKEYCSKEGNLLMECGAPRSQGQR
Method: as §1

[8] = system: T8, Rep nickase domain of tomato golden mosaic virus
T8 sequence (protein, residues 1-124, tag omitted): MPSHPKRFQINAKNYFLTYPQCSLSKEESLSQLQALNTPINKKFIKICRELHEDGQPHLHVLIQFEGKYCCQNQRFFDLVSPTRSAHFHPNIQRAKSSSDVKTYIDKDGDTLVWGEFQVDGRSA
Method: as §1

[9] = system: T9, Rep nickase domain of tomato yellow leaf curl virus
T9 sequence (protein, residues 1-136, tag omitted): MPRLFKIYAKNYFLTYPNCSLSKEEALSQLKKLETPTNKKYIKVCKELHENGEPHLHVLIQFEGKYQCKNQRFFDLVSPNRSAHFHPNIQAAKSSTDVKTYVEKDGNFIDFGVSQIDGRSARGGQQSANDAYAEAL
Method: as §1

[10] = system: T10, Rep nickase domain of wheat dwarf virus
T10 sequence (protein, residues 1-137, tag omitted): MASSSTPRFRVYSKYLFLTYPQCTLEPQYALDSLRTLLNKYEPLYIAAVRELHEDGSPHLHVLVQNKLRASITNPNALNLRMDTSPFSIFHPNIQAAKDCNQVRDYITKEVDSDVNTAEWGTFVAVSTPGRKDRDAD
Method: as §1

Sequence | uncleaved DNA left (log2) [1] | uncleaved DNA left (log2) [2] | uncleaved DNA left (log2) [3] | uncleaved DNA left (log2) [4] | uncleaved DNA left (log2) [5] | uncleaved DNA left (log2) [6] | uncleaved DNA left (log2) [7] | uncleaved DNA left (log2) [8] | uncleaved DNA left (log2) [9] | uncleaved DNA left (log2) [10]
CCTAGGG | -0.0984 | -0.106 | -0.28 | -0.214 | -0.00164 | -0.673 | 0.145 | 0.0204 | -0.12 | -0.0848
CATAAAA | -0.00713 | 0.0477 | 0.0339 | -0.352 | -0.00645 | -0.807 | 0.176 | 0.108 | 0.0178 | 0.0246
ATAACAG | 0.154 | 0.115 | -0.733 | -1.69 | 0.109 | -1.17 | 0.19 | 0.0819 | 0.0542 | -0.0619
AGCTGAC | 0.0776 | 0.00492 | -0.0539 | 0.838 | -0.0277 | 0.177 | 0.205 | 0.0374 | -0.00709 | -0.142
GGTTCGT | 0.125 | 0.0844 | 0.456 | 1.12 | 0.109 | 1.24 | 0.18 | 0.114 | 0.121 | 0.175
ATTTCTC | -0.0383 | -0.135 | 0.0166 | -0.269 | -0.00195 | -0.72 | -0.109 | 0.0102 | -0.00732 | 0.0694
ACGAGTC | 0.125 | -0.122 | -0.181 | -0.222 | 0.00528 | -0.84 | 0.0407 | -0.0421 | -0.0843 | -0.0463
GGCTGAC | -0.0933 | 0.0292 | 0.545 | 1.55 | -0.0385 | 1.53 | 0.176 | 0.0439 | -0.0581 | 0.098
CGCAGTT | -0.152 | -0.0428 | -0.138 | -1.17 | -0.0335 | -0.347 | -0.225 | -0.182 | -0.102 | -0.101
GCCTCGG | -0.109 | -0.0614 | 0.417 | 1.24 | 0.0247 | 1.51 | 0.00714 | -0.0307 | -0.142 | -0.0575
TGTAGCG | 0.0534 | 0.0305 | -0.752 | 0.33 | 0.0161 | -0.787 | 0.177 | -0.0851 | 0.0426 | -0.212
TGGAGTA | 0.09 | 0.0808 | 0.256 | 0.266 | -0.051 | 0.646 | -0.0504 | -0.0249 | 0.0791 | 0.0587
TACAGTG | 0.121 | -0.0145 | -0.834 | -0.955 | 0.0341 | -1.11 | 0.156 | -0.0361 | -0.0208 | -0.0905
GTCGCCT | 0.0825 | -0.0622 | 0.36 | 0.497 | 0.116 | 1.36 | 0.0874 | 0.0448 | -0.0167 | -0.000849
ATGATTG | 0.0743 | -0.0476 | -0.0829 | 0.623 | -0.0182 | -0.167 | 0.092 | 0.0172 | 0.0548 | 0.0878
